# Measured values from the BET-seq Pho4 binding data (Le et al. 2018).
# The other results are listed elsewhere or left out. The energies were worked out here from pooled read counts, against the library average; single values are noisy.
# Biological target: T1, Pho4 (S. cerevisiae) (UniProt P07270)
# T1 sequence: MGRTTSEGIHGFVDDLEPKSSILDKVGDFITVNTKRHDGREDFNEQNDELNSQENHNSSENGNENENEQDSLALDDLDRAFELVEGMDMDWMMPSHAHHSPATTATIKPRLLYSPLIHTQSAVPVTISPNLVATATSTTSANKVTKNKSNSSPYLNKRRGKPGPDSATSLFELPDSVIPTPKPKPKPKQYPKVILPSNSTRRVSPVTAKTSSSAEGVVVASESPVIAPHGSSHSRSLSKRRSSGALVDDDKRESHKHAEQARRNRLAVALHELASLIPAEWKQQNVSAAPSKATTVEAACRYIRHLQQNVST
# Test: relative binding free energy (BET-seq); higher = weaker binding
# Settings: reference: library average
row,Sequence,relative binding free energy
1,TATCTCACGTGGAGGT,0.22 kcal/mol
2,GAAATCACGTGTGTGG,0.05 kcal/mol
3,AGATTCACGTGTGGTA,0.22 kcal/mol
4,TGGCTCACGTGTGCGG,0.23 kcal/mol
5,GGGGGCACGTGGGAAG,-0.09 kcal/mol
6,GCTGGCACGTGGAGGC,-0.09 kcal/mol
7,TTGTTCACGTGGTAAA,0.26 kcal/mol
8,ATAGGCACGTGTGAGT,-0.05 kcal/mol
9,AATGTCACGTGAGGTT,0.26 kcal/mol
10,CTTGTCACGTGGTGGG,0.03 kcal/mol
11,GATAACACGTGTTCTT,0.23 kcal/mol
12,GGAAGCACGTGGCGTG,-0.23 kcal/mol
13,GTTTGCACGTGGCTTT,0 kcal/mol
14,TGTTACACGTGAGAGT,0.32 kcal/mol
15,AATCTCACGTGTGGGT,0.22 kcal/mol
16,TGGCTCACGTGTCAGT,0.26 kcal/mol
17,TGAAGCACGTGTGGCG,-0.03 kcal/mol
18,TTAGGCACGTGATCGT,-0.04 kcal/mol
19,AGGACCACGTGGGTTG,-0.22 kcal/mol
20,TGTTGCACGTGGGTTG,-0.11 kcal/mol
21,ATTATCACGTGTTTTA,0.02 kcal/mol
22,TGTTTCACGTGTTTCG,0.28 kcal/mol
23,ATGATCACGTGGGATA,0.02 kcal/mol

row,Sequence,relative binding free energy
1,AGATGCACGTGGCTCG,0.06 kcal/mol
2,AAACGCACGTGGAGGG,-0.2 kcal/mol
3,ATGTGCACGTGAACAG,0.2 kcal/mol
4,GTGAGCACGTGTGCAG,-0.16 kcal/mol
5,GTTCACACGTGGTTGA,0.05 kcal/mol
6,AGTGGCACGTGCACGG,-0.16 kcal/mol
7,AACGTCACGTGTGTGA,0.07 kcal/mol
8,TTGCTCACGTGGGGAT,0.14 kcal/mol
9,CATGTCACGTGCTGTT,0 kcal/mol
10,TGTGACACGTGGTCGG,-0.22 kcal/mol
11,TTGCGCACGTGTGTGA,-0.23 kcal/mol
12,TGTTTCACGTGAAGGG,0.37 kcal/mol
13,TGCGTCACGTGAAAGT,0.26 kcal/mol
14,TTGTACACGTGTGGTC,0.15 kcal/mol
15,TTTTGCACGTGAAGTG,0.29 kcal/mol
16,GGCAGCACGTGGTGAT,-0.08 kcal/mol
17,TTGTTCACGTGCGACG,0.36 kcal/mol
18,GAGTTCACGTGAGTGA,0.49 kcal/mol
19,GGGAACACGTGGAAGG,0.13 kcal/mol
20,GGTGGCACGTGCTAAG,-0.02 kcal/mol
21,TCGGGCACGTGAGATA,0.22 kcal/mol
22,TGCGTCACGTGTGTTT,0.15 kcal/mol
23,AAGGTCACGTGGGCGA,-0.08 kcal/mol

row,Sequence,relative binding free energy
1,CTTACCACGTGTGGTT,0 kcal/mol
2,GCGTGCACGTGGCGGA,-0.1 kcal/mol
3,TATTACACGTGGGTGG,0.03 kcal/mol
4,CGTGCCACGTGGGTAT,-0.23 kcal/mol
5,GTGCTCACGTGTGGGT,0.19 kcal/mol
6,TACTGCACGTGGGGTG,-0.13 kcal/mol
7,TGGGGCACGTGCGGCC,-0.32 kcal/mol
8,TGGGCCACGTGATTGT,-0.03 kcal/mol
9,AATAGCACGTGATGGT,0.16 kcal/mol
10,TGTGACACGTGGCAGT,-0.07 kcal/mol
11,AATGGCACGTGATGAG,0.03 kcal/mol
12,GTATGCACGTGGGCTA,-0.19 kcal/mol
13,GGGCTCACGTGTGTAT,0.25 kcal/mol
14,TTGAGCACGTGTGGCG,-0.15 kcal/mol
15,ACGGTCACGTGTCGGT,0.02 kcal/mol
16,TGAGCCACGTGGGTAT,-0.13 kcal/mol
17,TTGTGCACGTGTCGGG,0.04 kcal/mol
18,GGGTGCACGTGATGCG,0.03 kcal/mol
19,GCAGGCACGTGGGCGC,-0.11 kcal/mol
20,ATGGGCACGTGGTCTA,-0.22 kcal/mol
21,TCTGGCACGTGCGTTG,-0.06 kcal/mol
22,GGACTCACGTGGTTGG,0.14 kcal/mol
23,ATATACACGTGTGGGG,-0.09 kcal/mol

row,Sequence,relative binding free energy
1,TTTGCCACGTGTGTGC,-0.03 kcal/mol
2,GTGTTCACGTGGTAGA,0.32 kcal/mol
3,CGGTTCACGTGGTGTA,0.13 kcal/mol
4,TTTACCACGTGAGGGA,0.28 kcal/mol
5,GGCGGCACGTGGTTTG,-0.14 kcal/mol
6,AAATGCACGTGTTTCG,0 kcal/mol
7,TTATTCACGTGTCTTT,0.33 kcal/mol
8,TTTAGCACGTGCTGTA,-0.15 kcal/mol
9,GCTGGCACGTGTATGG,-0.01 kcal/mol
10,TTTCTCACGTGGCTGT,-0.01 kcal/mol
11,TTGTACACGTGTCTTT,0.13 kcal/mol
12,GTGTGCACGTGCGGCG,-0.15 kcal/mol
13,TTATACACGTGTGCAT,0.01 kcal/mol
14,GTGTTCACGTGAAACG,0.41 kcal/mol
15,TATCGCACGTGTTTAT,-0.07 kcal/mol
16,ATCGGCACGTGAGGGC,-0.02 kcal/mol
17,ATTTTCACGTGTAATG,0.12 kcal/mol
18,TAATACACGTGAAGGT,0.43 kcal/mol
19,AGGTACACGTGCAGGA,0.1 kcal/mol
20,GGGTACACGTGGTGTT,0.05 kcal/mol
21,TGTGCCACGTGTTGGC,-0.06 kcal/mol
22,CGGGGCACGTGCGGCA,-0.18 kcal/mol
23,CTTATCACGTGTATGA,0.1 kcal/mol

row,Sequence,relative binding free energy
1,TGTTACACGTGTCCTG,0.16 kcal/mol
2,TGGACCACGTGAGAGT,0.24 kcal/mol
3,GTTTACACGTGCTGTG,-0.01 kcal/mol
4,TGGTGCACGTGGCCAG,-0.17 kcal/mol
5,AGTTTCACGTGTATGC,0.41 kcal/mol
6,GGGGACACGTGATGTT,0.22 kcal/mol
7,GGTTTCACGTGTCTTA,0.36 kcal/mol
8,ATTGTCACGTGTGTTG,0.07 kcal/mol
9,GGTGTCACGTGGTCTA,0.02 kcal/mol
10,TTCAGCACGTGGTATT,-0.22 kcal/mol
11,TAATTCACGTGTATGT,0.2 kcal/mol
12,GGAAGCACGTGGGGTG,-0.21 kcal/mol
13,GGTTGCACGTGATCTA,0.12 kcal/mol
14,GGTCTCACGTGGGTGC,0.14 kcal/mol
15,AAGTACACGTGGGGAT,0.08 kcal/mol
16,TCAGGCACGTGGGCGT,-0.42 kcal/mol
17,GTGTACACGTGAAGTT,0.19 kcal/mol
18,CCGGGCACGTGGGTAG,-0.21 kcal/mol
19,ATATGCACGTGGTGGT,-0.17 kcal/mol
20,TAGGTCACGTGTAGAA,0.1 kcal/mol
21,TTGGCCACGTGCTGAG,0.08 kcal/mol
22,GTAGACACGTGGGAGC,0.13 kcal/mol
23,TGTAGCACGTGATTTT,0.2 kcal/mol
